Data on 86 sequences can be found in the supplement of paper PMC3334620.

Whole data set: some 33,000 sequences, median “E-score (-0.5 to 0.5)” near -0.041, cut for the highest 2% near 0.37. This is one part of the list.

This experiment has as its target T1, Ecm22 (UniProt Q05958).
T1 sequence: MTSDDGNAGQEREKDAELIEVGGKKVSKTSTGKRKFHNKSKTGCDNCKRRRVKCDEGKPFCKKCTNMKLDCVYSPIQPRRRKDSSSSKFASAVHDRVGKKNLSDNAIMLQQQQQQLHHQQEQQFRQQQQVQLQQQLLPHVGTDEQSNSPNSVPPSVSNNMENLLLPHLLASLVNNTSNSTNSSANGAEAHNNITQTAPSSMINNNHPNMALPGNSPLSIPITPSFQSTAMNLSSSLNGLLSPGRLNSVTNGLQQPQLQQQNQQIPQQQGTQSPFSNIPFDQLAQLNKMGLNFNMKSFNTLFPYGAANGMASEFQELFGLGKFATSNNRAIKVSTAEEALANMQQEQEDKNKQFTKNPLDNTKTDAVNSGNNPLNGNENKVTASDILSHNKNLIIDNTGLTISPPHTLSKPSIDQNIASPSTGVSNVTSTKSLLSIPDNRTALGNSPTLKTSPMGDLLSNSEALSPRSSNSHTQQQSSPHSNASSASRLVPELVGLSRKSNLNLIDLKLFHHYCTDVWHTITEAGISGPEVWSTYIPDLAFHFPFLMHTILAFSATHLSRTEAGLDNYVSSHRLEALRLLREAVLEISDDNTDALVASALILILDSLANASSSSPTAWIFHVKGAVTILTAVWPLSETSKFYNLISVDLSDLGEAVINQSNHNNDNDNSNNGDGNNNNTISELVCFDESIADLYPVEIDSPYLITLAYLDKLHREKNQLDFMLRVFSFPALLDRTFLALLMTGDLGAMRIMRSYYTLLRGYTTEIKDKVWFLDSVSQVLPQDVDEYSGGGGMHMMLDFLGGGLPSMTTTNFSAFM
The experiment is described as follows: PBM E-score (8-mer binding enrichment) (E-score (-0.5 to 0.5)); higher = stronger / more preferred TF binding; most listed sequences are background and not binding sites. Particulars: protein concentration: 200 nM; construct: GST-full length. An outline of the steps:
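Universal all-10-mer Agilent arrays, fresh or stripped once, were converted to double-stranded form by primer extension. GST-tagged yeast transcription factors from PURExpress in vitro transcription/translation, full-length or DNA-binding domain only, were applied at about 100-200 nM and detected with fluorescent anti-GST. After masliner normalisation, the Universal PBM Analysis Suite scored each ungapped eight-base word together with its reverse complement by E-score.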
For AGTACAGC, the “PBM E-score” value was -0.113.

Take ATACAATC: the “PBM E-score” value was found to be 0.176.

AAACTCCA: the “PBM E-score” value is -0.0923. As for TAAGTTGA, the figure is -0.105. In the case of ACAGTCAC, the “PBM E-score” value was -0.126. As for GGCATACA, the figure is -0.082. As for CCCAGAGC, the figure is -0.286; as for CAGGCGTA, 0.0954; as for ACTTCCCT, -0.15. The same measure for GAGTGCCC: -0.206; for GGTTCACA: -0.217. Regarding ATCCGCGA, the “PBM E-score” value was -0.00107. As for AAGGTATA, the figure is -0.0141. The same measure for TAAGCGCA: -0.0945.

ACCAATGG: the “PBM E-score” value was -0.288. In the case of CCCCAGAA, the “PBM E-score” value was -0.194. As for CACCCACC, the figure is -0.214; as for CCTCGAAA, 0.0231; as for AAGGAGTA, -0.178. As for CGAACTTA, the figure is 0.25; as for ATCGTCTA, 0.0467. The same measure for CGACGTGC: 0.154; for AATTGTCG: 0.134; for TATGGCCA: -0.247. Consider CTTAACTC, for which the “PBM E-score” value is 0.03. As for AGTCGACA, the figure is 0.114; as for GGCGATGA, -0.00497. With AGAGCTCT, the “PBM E-score” value was -0.41.

As to AGCCCGAG, the “PBM E-score” value was -0.00628. The same measure for CGGCCAGC: -0.0653; for CCAAGCCG: -0.193.

ACCAGCAC: the “PBM E-score” value was -0.174.

On to CTCAGGTC, for which the “PBM E-score” value is -0.0857. As for CACTTGCC, the figure is -0.223; as for GCCACCAC, -0.209; as for CTCAACCC, -0.14.

With CATGACCC, the “PBM E-score” value is -0.258. As for ATTTATGG, the figure is 0.0199; as for CTGCCTAA, -0.118. As for GGAACAGA, the “PBM E-score” value is -0.378. As for TCTTTGCA, the figure is 0.0516. As for AAGCGTGC, the “PBM E-score” value was -0.0355. The same measure for CATGTAGC: -0.0208; for CCGCAGAA: -0.077; for GCATACGA: 0.446. As for ATGACCCG, the figure is -0.00499. As for CGTTTTCC, the figure is 0.159; as for CGCGCACG, 0.0983. With GACATGAA, the “PBM E-score” value is -0.195. The same measure for CGCTTTCA: 0.0279. The same measure for AATACTCG: 0.125. As for CTACAAGA, the “PBM E-score” value is -0.133. The same measure for CGTCTGTC: -0.0468.

Regarding CTCTAACC, the “PBM E-score” value is -0.209. On to CAGCTCCG, for which the “PBM E-score” value amounted to 0.0485. Take TAAGCCTA: the “PBM E-score” value was -0.106. AACTATAA: the “PBM E-score” value is 0.039. The same measure for CTTCTAAC: -0.264; for GGACTTCA: -0.293; for CGTAGCAG: 0.191. As for ACTTGGCA, the figure is -0.0966; as for GATGGACC, 0.058; as for CGACGCAC, 0.208. As for GTTCTCAA, the figure is 0.0253; as for AGCCTATG, -0.213. Regarding ACTACAAG, the “PBM E-score” value was -0.0142.

For ACTTCGCG, the “PBM E-score” value worked out at 0.198.

As for GACGTTAC, the “PBM E-score” value was 0.119.

As to GTCTGGAA, the “PBM E-score” value was -0.153. The same measure for AAGGAGCG: 0.175; for AGGGTACC: -0.323. In the case of GCGACATA, the “PBM E-score” value turned out to be 0.22.

In the case of GATATCCC, the “PBM E-score” value amounted to 0.00619. The same measure for AATTCACC: 0.0105. As for AAGATGGC, the figure is -0.155. Regarding ATGATCGA, the “PBM E-score” value came out at 0.159.

CAATGTGC: the “PBM E-score” value stood at 0.0423. The same measure for GATATGCA: -0.0569; for ACGGATCC: 0.143.

Consider TACCCTAA, for which the “PBM E-score” value is -0.0756.

For GTGCAACA, the “PBM E-score” value is -0.186.

As for AGGTTTAT, the “PBM E-score” value worked out at 0.124. The same measure for GTGTGATA: 0.114; for CGATGTTA: 0.059; for CCTGTGCG: 0.11. The same measure for CAACTTAA: -0.0758.
